# Results as given in PubChem BioAssay AID485294 (National Center for Advancing Translational Sciences (NCATS), 2010).
# About 150 (0.041%) of roughly 370,000 compounds were called active. Inconclusive results, whose numbers are uncertain, are shown with a selection of clear calls. The call rests on the fitted dose curve; in most records, active means well fitted inhibition curve with a large enough effect; inconclusive means small, poorly fitted or top-dose-only effect; inactive means flat fitted curve, though single readings scatter. Potencies of inconclusive entries are left out as doubtful fits.
# Biological target: Beta-lactamase (Escherichia coli (strain K12)) (UniProt P00811)
# Test: qHTS Inhibitors of AmpC Beta-Lactamase (assay with detergent); further: nearly all actives have a fitted effect of over 25% in size;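 on activity change, negative = inhibition: 0% = no-compound wells and -100% = no-enzyme wells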
# Conditions: AmpC hydrolysis of nitrocefin, absorbance 480 nm, 0.01% Triton; activity change, negative = inhibition: at 114 µM (top of the series)
# Outline: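 AmpC (5.3 nM in the dispensed reagent) in 20 mM phosphate pH 7.0 with 0.01% (detergent screen) or 0.0001% Triton X-100 was preincubated with compounds for 15 min at room temperature. Nitrocefin was then added from an 800 uM solution, and hydrolysis was followed at 480 nm.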
# Potency means the concentration at half of the fitted maximal effect; tags describe the fitted curve by direction and shape.
# UniProt P00811, sequence (P00811 whole entry, looked up): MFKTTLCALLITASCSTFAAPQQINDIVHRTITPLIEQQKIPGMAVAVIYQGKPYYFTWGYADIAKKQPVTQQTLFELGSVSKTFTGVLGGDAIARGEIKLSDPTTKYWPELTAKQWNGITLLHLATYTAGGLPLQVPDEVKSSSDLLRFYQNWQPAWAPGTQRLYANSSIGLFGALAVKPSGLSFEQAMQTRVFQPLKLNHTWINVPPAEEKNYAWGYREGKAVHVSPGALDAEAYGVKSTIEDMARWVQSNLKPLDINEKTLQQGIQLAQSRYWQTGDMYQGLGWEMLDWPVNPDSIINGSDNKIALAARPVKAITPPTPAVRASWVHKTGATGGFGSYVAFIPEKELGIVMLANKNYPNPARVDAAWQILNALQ
SMILES,"activity change, negative = inhibition",Potency
COc1ccc(C)cc1S(=O)(=O)N(CC(=O)NC1CCCC1)c1ccc(F)cc1,inactive: 4.61%,–
CC(NC(=O)CSc1n[nH]c(-c2ccccc2Cl)n1)c1nc2ccccc2n1C (configuration not stated),inactive: 3%,–
Cc1ccccc1-n1cc(C(=O)c2cc(Cl)ccc2O)cc(C#N)c1=O,–,"inconclusive [inhibitor, partial curve, poor fit]"
CCOc1ccc(Br)cc1S(=O)(=O)Nc1ccc(NC(=O)c2ccccc2F)cc1,–,"inconclusive [inhibitor, full curve, poor fit]"
Cc1cccc(-n2c(SCCC(=O)O)nnc2-c2cccs2)c1C,–,"inconclusive [inhibitor, full curve, poor fit]"
Cc1sc2nc(SCC(=O)NCc3ccco3)n(CCc3ccccc3)c(=O)c2c1C,–,"inconclusive [inhibitor, partial curve, poor fit]"
COc1ccc(C(=O)N(Cc2nc(-c3ccc(C)cc3)no2)C(C)C)cc1OC,–,"inconclusive [inhibitor, full curve]"
COc1ccc(N(Cc2cc3cc(OC)ccc3[nH]c2=O)C(=O)c2cccnc2)cc1,–,"inconclusive [inhibitor, full curve, poor fit]"
Cc1noc(C)c1C(=O)NCCc1ccc(Cl)cc1,inactive: -1.08%,–
CC(C)c1ccc2c(c1)CCC1C(C)(CN)CCCC21C (configuration not stated),inactive: -5.92%,–
CCOC(=O)c1cccc(NC(=O)CC(c2cc(OC)c(OC)c(OC)c2)N2Cc3ccccc3C2=O)c1 (configuration not stated),–,"inconclusive [inhibitor, single point]"
S=c1[nH]nc(-c2ccc(Br)cc2)n1-c1ccc(Br)cc1,–,"inconclusive [inhibitor, full curve, poor fit]"
CC(C)(C)n1nnnc1C(c1ccncc1)N(Cc1ccccc1)Cc1ccco1 (configuration not stated),–,"inconclusive [inhibitor, partial curve, poor fit]"
CCOC(=O)c1c(-c2ccccc2)oc2ccc(OCC(O)CN(C)C)cc12 (configuration not stated),–,"inconclusive [inhibitor, full curve]"
Cc1cc(Br)c(NC(=O)CN2CC=C(c3ccccc3)CC2)c(Br)c1,–,"inconclusive [inhibitor, full curve, poor fit]"
CC(C)N(C(=O)CSc1nnnn1C1CCCC1)C(C)C,–,"inconclusive [inhibitor, full curve, poor fit]"
Clc1cccc2c1Sc1ccccc1CC2N1CCNCC1 (configuration not stated),–,"inconclusive [inhibitor, single point]"
CCOc1ccc(C(=O)N2CCCC2C(=O)O)cc1 (configuration not stated),–,"inconclusive [inhibitor, partial curve]"
Cc1ccc(N2CCCn3c2cc(C)c(C#N)c3=O)cc1Cl,–,"inconclusive [inhibitor, single point]"
Cc1cc(C)c2c(c1)-c1cc(C)nn1C(c1ccc3c(c1)OCO3)N2 (configuration not stated),–,"inconclusive [inhibitor, single point]"
CCCc1cc(C(=O)Nc2cccc3ccccc23)n(C)n1,–,"inconclusive [inhibitor, full curve, poor fit]"
COc1cccc(-c2nn3c(-c4ccccn4)nnc3s2)c1,inactive: -15.9%,–
Cc1ccc(C)c(SCC(=O)NC(=O)Nc2ccc3c(c2)OCCO3)c1,–,"inconclusive [inhibitor, full curve, poor fit]"

SMILES,"activity change, negative = inhibition",Potency
COc1ccc(CNC(=O)Cn2c(=O)oc3cc(S(=O)(=O)N4CCCCCC4)ccc32)cc1,inactive: 1.43%,–
Cc1ccc(N(C)S(=O)(=O)c2cccc(C(=O)NC3CC(C)(C)NC(C)(C)C3)c2)cc1,–,"inconclusive [inhibitor, full curve]"
CSCCCNC(=S)N1CCc2ccccc2C1,inactive: 1.23%,–
CCOC(=O)N1CCN(C(=O)CN(c2ccc(OCC)cc2)S(C)(=O)=O)CC1,inactive: -4.44%,–
CCC(Sc1nc(C)cc(C)n1)C(=O)O (configuration not stated),–,"inconclusive [inhibitor, full curve, poor fit]"
COc1ccccc1C(=O)Nc1ccc(-c2nnn(CC(=O)NCc3ccco3)n2)cc1,–,"inconclusive [inhibitor, partial curve]"
Cn1c(N)c(C(=O)COC(=O)CSc2ccc(Cl)cc2)c(=O)n(C)c1=O,–,"inconclusive [inhibitor, full curve, poor fit]"
CCOC(=O)NCC(C#CCN(CC)CC)N(CC)CC (configuration not stated),–,"inconclusive [inhibitor, single point]"
CC(C)c1ccc(NC(=O)C2CCN(S(=O)(=O)c3cccc4nsnc34)CC2)cc1,inactive: 1.69%,–
CS(=O)(=O)N1CCN(C(=O)NC23CC4CC(CC(C4)C2)C3)CC1,–,"inconclusive [inhibitor, full curve]"
CCc1ccc(CNC(=O)C(=O)NCC2CCCO2)cc1 (configuration not stated),inactive: -5.56%,–
Cc1nn(Cc2ccccc2)c(Cl)c1C(=O)OCC#N,–,"inconclusive [inhibitor, full curve]"
COc1ccc(-c2nc3c4ccccc4ccn3c2CN2CCCCC2)cc1OC,inactive: 1.55%,–
CCOc1ccccc1C(=O)N1CCN(c2cccc(Cl)c2)CC1,–,"inconclusive [inhibitor, partial curve]"
CC/C(=N\NC(=S)Nc1ccc(OC)cc1)c1ccc(OC(F)F)cc1,inactive: -8.67%,–
C=CCn1c(SCC(=O)NCC)nnc1-c1cc2c(s1)CCC(CC)C2 (configuration not stated),–,"inconclusive [inhibitor, partial curve]"
COc1cc2c(cc1OC)CN(C(=S)Nc1ccc(C)cc1C)CC2,–,"inconclusive [inhibitor, full curve, poor fit]"
Cc1nn2c(-c3ccc(Cl)cc3Cl)nnc2s1,–,"inconclusive [inhibitor, single point]"
O=C(c1cccc2ccccc12)N1CCN(c2ccc([N+](=O)[O-])c(NCc3ccco3)c2)CC1,–,"inconclusive [inhibitor, full curve, poor fit]"
O=c1cc(-c2ccccc2)nc(SCc2nc(-c3ccc(C(F)(F)F)cc3)no2)[nH]1,inactive: 12.4%,–
CCCOc1cccc(C(=O)Nc2cccnc2)c1,–,"inconclusive [inhibitor, full curve, poor fit]"
Cc1ccc(Cn2c(=N)c(C(=O)NCCN3CCOCC3)cc3c(=O)n4ccccc4nc32)cc1,inactive: -4.41%,–
Cc1c(Cl)cccc1NC(=O)NCc1ccc(C)n1C,–,"inconclusive [inhibitor, partial curve]"

SMILES,"activity change, negative = inhibition",Potency
COc1ccccc1OCc1ccc(C(=O)NCC(C)C)o1,–,"inconclusive [inhibitor, partial curve]"
Cc1cccc(NC(=O)C2CCN(S(=O)(=O)c3cccc4nsnc34)CC2)c1,–,"inconclusive [inhibitor, single point]"
Cc1ccc(-c2n[nH]c(=S)n2Cc2ccccc2)cc1,inactive: -0.588%,–
Cc1ccc(OCCN(C)C(=O)C2CCC(=O)N(CCCN3CCOCC3)C2)cc1 (configuration not stated),–,"inconclusive [inhibitor, full curve, poor fit]"
CCC(C)Sc1ccc([C@@H]2[C@@H]3C(=O)N(C)C(=O)[C@@H]3[C@]3(C(=O)OC)CCCCN23)cc1OC (some centres not stated),–,"inconclusive [inhibitor, single point]"
O=C(NCc1ccccc1)C1CCC(=O)N(CCN2CCOCC2)C1 (configuration not stated),–,"inconclusive [inhibitor, full curve, poor fit]"
CCOc1ccc(-n2cc(C(=O)Nc3ccccc3OCC)c3cc(OC)c(OC)cc3c2=O)cc1,inactive: -2.61%,–
O=C1OC(N2C(=O)CC[C@H]2C(=O)Nc2ccc3c(c2)OCO3)c2ccccc21 (some centres not stated),–,"inconclusive [inhibitor, partial curve]"
COc1cc2[nH]c3c(=O)n(CCN4CCCCC4)cnc3c2cc1OC,inactive: -19.2%,–
Cc1cc(C(=O)Nc2ccccc2C(F)(F)F)no1,–,"inconclusive [inhibitor, single point]"
O=C1Nc2ccc(Br)cc2C1=Nc1cccnc1,–,"inconclusive [inhibitor, full curve, poor fit]"
CC(C)CCNC(=O)c1ccc(C2SCC(=O)N2Cc2ccco2)cc1 (configuration not stated),inactive: -1.56%,–
O=C(NCc1ccccc1)/C(=C/c1ccc([N+](=O)[O-])cc1)NC(=O)c1ccco1,–,"inconclusive [inhibitor, partial curve, poor fit]"
CCc1ccc(-n2c(SCc3cc(=O)n4cc(Br)ccc4n3)nc3[nH]ncc3c2=O)cc1,–,"inconclusive [inhibitor, full curve, poor fit]"
COc1cc(NC(=O)c2cccc3c2C(=O)N(Cc2cccnc2)C3)cc(OC)c1OC,–,"inconclusive [inhibitor, full curve]"
Oc1ccccc1-c1nc(N2CCCC2)c2ccccc2n1,–,"inconclusive [inhibitor, full curve, poor fit]"
COc1nc(OC)nc(Oc2ccc(Cl)cc2[N+](=O)[O-])n1,–,"inconclusive [inhibitor, partial curve, poor fit]"
CS(=O)(=O)NCCSc1nnnn1-c1ccccc1,–,"inconclusive [inhibitor, full curve, poor fit]"
CCOc1ccccc1-n1c(CNc2ccc(F)cc2)nnc1SCC(=O)NCc1ccco1,inactive: -9.43%,–
CN(Cc1ccccc1)C(=O)c1cc(S(=O)(=O)N2CCOCC2)cn1C,–,"inconclusive [inhibitor, single point]"
CCOc1nc(NCc2ccco2)nc(Nc2ccccc2F)n1,–,"inconclusive [inhibitor, full curve]"
